Measured values as given in PubChem BioAssay AID588855 (National Center for Advancing Translational Sciences (NCATS), 2011).
“And” between values parts separate entries of the source, which are not always exact repeats. Identical values can stand only once. Screen size: about 410,000 compounds; about 5,000 (1.2%) were called active. This list was built around the results that the source calls inconclusive (neither active nor inactive); the mix of calls is not that of the screen. Calls come from the whole dose curve; as a rule, active = well fitted inhibition curve with a large enough effect; inconclusive = small, poorly fitted or top-dose-only effect; inactive = no such curve, though single readings can be large or run the other way. Potencies of inconclusive entries are doubtful fits and often do not repeat.

Assay: qHTS for Inhibitors of TGF-b; note: nearly all actives have a fitted effect of over 65% in size
Details: HepG2 CAGA-GFP TGF-b/SMAD3 reporter, GFP fluorescence, 18 h, TGF-beta stimulated, 500 pg/mL final; series mostly up to 46.1 µM
Method in brief: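 Per well, imaged GFP fluorescence of HEPG2 CAGA-GFP cells gives the signal; cells get compound, then TGF-beta (500 pg/mL final), 18 h at 37 degrees C; %Activity versus -TGF-beta and +DMSO controls.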
Potency is the fitted concentration of half-maximal effect; tags give direction and shape of the fitted curve.

With `Clc1ccc(CONc2ncnc3nonc23)c(Cl)c1` as the compound, how does the Potency read?
The Potency was inconclusive: 25.1 µM [inhibitor, single point].

With `Cc1ccc(C2CC(c3cccs3)=NN2C(=O)CCl)cc1` (stereo not drawn) as the compound, how does the Potency read?
Its Potency is inconclusive: 12.6 µM [inhibitor, partial curve, poor fit].

With `CC1=CC2=NC(=O)/C(=C\c3cccn3CCOc3ccc(C)c(C)c3)C(=N)N2O1` as the compound, how does the Potency read?
The Potency was “inactive”.

Which Potency does the source give for `O=C(/C=C/c1ccc(Cl)cc1)N1CCN(c2c(Cl)cccc2[N+](=O)[O-])CC1` here?
Its Potency is inconclusive: 15.8 µM [inhibitor, single point].

For `Cc1ccc(NC(=O)CSc2nc3c(c(=O)[nH]2)CN(Cc2ccc(F)cc2)CC3)cc1C`, which Potency is on record?
The Potency was inconclusive: 15.8 µM [inhibitor, single point].

For `CC1(C)C[C@H](O)[C@]2(CO)[C@H](O)C[C@]3(C)C(=CCC4[C@@]5(C)CC[C@H](O)C(C)(C)C5CC[C@]43C)[C@@H]2C1` (stereo partly drawn), which Potency is on record?
The Potency was inconclusive: 17.8 µM [inhibitor, single point].

For `Cc1cc(C)c2nc(N3CCC(C(=O)NCCCN4CCCCC4)CC3)sc2c1`, which Potency is on record?
The Potency was inconclusive: 35.5 µM [inhibitor, single point].

Which Potency does the source give for `CC(C)(C)[C@@H]1COC(=O)[C@H](Cc2ccc(F)cc2)CC/C=C\C[C@H](CC(=O)N(CCO)Cc2ccccc2)C(=O)N1` here?
Its Potency is inconclusive: 22.4 µM [inhibitor, single point].

With `COc1ccccc1-c1cc2nc(C)c(CCC(=O)NCCc3ccc(SC)cc3)c(C)n2n1` as the compound, how does the Potency read?
The Potency was “inactive”.

For `S=c1[nH]nc(-c2cc(-c3ccccc3)n[nH]2)n1/N=C/c1ccc(Cl)cc1`, which Potency is on record?
Its Potency is inconclusive: 14.1 µM [inhibitor, single point].

Which Potency does the source give for `COc1cc(OC)cc(-c2sc3ccc(OC)cc3c2-c2ccc(OCCN3CCOCC3)cc2)c1` here?
Its Potency is “inactive”.

For `Clc1cccc(-c2ccc3ncnc(NCc4cccs4)c3c2)c1`, which Potency is on record?
Its Potency is inconclusive: 17.8 µM [inhibitor, single point].

With `CCN(CC)c1ccc(NC(=O)c2sc3ccccc3c2Cl)cc1` as the compound, how does the Potency read?
Its Potency is “inactive”.

With `COc1ccc(C(=O)Nc2ccc(C(=O)NCCc3ccccc3)cc2)cc1` as the compound, how does the Potency read?
The Potency was inconclusive: 3.16 µM [inhibitor, partial curve, poor fit].

Which Potency does the source give for `O=C(O)C1=C[C@H](c2cccs2)C[C@H](OCc2ccc(CO)cc2)O1` here?
The Potency was inconclusive: 6.31 µM [inhibitor, single point].

Which Potency does the source give for `Nn1c(Cc2cccc3ccccc23)nnc1SCCOc1ccc(F)cc1` here?
The Potency was inconclusive: 11.2 µM [inhibitor, single point].

Which Potency does the source give for `CCN(CC)CCC(c1ccc(N(C)C)cc1)c1c(OC)cc(OC)c2c(-c3ccccc3)cc(=O)oc12` (stereo not drawn) here?
Its Potency is inconclusive: 10 µM [inhibitor, partial curve, poor fit] and inconclusive: 35.5 µM [inhibitor, single point].

With `COc1ccc(OC)c(-c2noc(N3CCN(c4cc(C)ccc4C)CC3)n2)c1` as the compound, how does the Potency read?
Its Potency is inconclusive: 2.24 µM [inhibitor, full curve].

Which Potency does the source give for `O=C1CCc2cc(S(=O)(=O)N3CCN(c4cccc(C(F)(F)F)c4)CC3)ccc2N1` here?
The Potency was inconclusive: 35.5 µM [inhibitor, single point].

For `Cc1cnccc1CN(C)Cc1cn(C)nc1-c1cccc(Cl)c1`, which Potency is on record?
The Potency was inconclusive: 0.447 µM [inhibitor, full curve, poor fit].

With `Cc1oc(-c2ccc(Cl)cc2)nc1CN1CCCC(C(=O)NC2CC2)C1` (stereo not drawn) as the compound, how does the Potency read?
The Potency was “inactive”.

For `CC1CCCN(C(=O)c2cccc(S(=O)(=O)N3CCCc4ccccc43)c2)C1` (stereo not drawn), which Potency is on record?
The Potency was inconclusive: 3.16 µM [inhibitor, partial curve].

With `Cc1ccc(OCn2c(=O)sc3ccccc32)cc1` as the compound, how does the Potency read?
Its Potency is “inactive”.

With `COc1ccc(OC)c(CCNC(=O)Cn2ccc3cc(S(=O)(=O)N4CCCCC4)ccc32)c1` as the compound, how does the Potency read?
Its Potency is inconclusive: 22.4 µM [inhibitor, single point].

With `O=C(CC1Oc2ccccc2NC1=O)NCc1ccccc1` (stereo not drawn) as the compound, how does the Potency read?
The Potency was “inactive”.

With `CCOc1ccc(NC(=O)c2c(NCc3ccc(C)o3)sc3c2CCCCC3)cc1` as the compound, how does the Potency read?
Its Potency is inconclusive: 17.8 µM [inhibitor, single point].

For `CCn1cc(C(=O)OCC(=O)Nc2cc(OC)cc(OC)c2)c(=O)c2ccc(C)nc21`, which Potency is on record?
Its Potency is inconclusive: 0.112 µM [inhibitor, full curve, poor fit].

Which Potency does the source give for `O=C1C=C(O)c2c(O)cc(O)c(O)c2C1=O` here?
The Potency was inconclusive: 14.1 µM [inhibitor, single point].

For `Cc1ccc(S(=O)(=O)Nc2ccc(S(=O)(=O)Nc3nccs3)cc2)c([N+](=O)[O-])c1`, which Potency is on record?
The Potency was inconclusive: 10 µM [inhibitor, partial curve].

For `COc1ccc(Cl)cc1NC(=O)C(C)OC(=O)c1ccc(NS(=O)(=O)c2ccc3[nH]c(=O)[nH]c3c2)cc1` (stereo not drawn), which Potency is on record?
Its Potency is inconclusive: 35.5 µM [inhibitor, single point].

Which Potency does the source give for `O=C(NNS(=O)(=O)c1ccc(F)cc1)c1cnn(-c2ccccc2)c1C(F)(F)F` here?
Its Potency is “inactive”.

With `CCOc1ccc(N(CC(=O)N2CCN(c3ccccc3)CC2)S(=O)(=O)c2c(C)noc2C)cc1` as the compound, how does the Potency read?
The Potency was inconclusive: 14.1 µM [inhibitor, partial curve, poor fit].

For `O=C(NN1C(=O)C2C3c4ccccc4C(c4ccccc43)C2C1=O)c1ccc(Cl)cc1` (stereo not drawn), which Potency is on record?
Its Potency is inconclusive: 4.47 µM [inhibitor, partial curve, poor fit].

With `C=CCn1c(C)nnc1SCC(=O)c1[nH]c(C)c(C(C)=O)c1C` as the compound, how does the Potency read?
The Potency was “inactive”.

With `Cc1noc(C)c1CSCC(=O)Nc1ccc(OC(F)F)c(Cl)c1` as the compound, how does the Potency read?
Its Potency is inconclusive: 0.398 µM [inhibitor, full curve, poor fit].

For `COC(=O)c1sc(NC(=O)CCCn2nc([N+](=O)[O-])cc2C)c(C(=O)OC)c1C`, which Potency is on record?
Its Potency is “inactive”.

For `Fc1cccc(CCN2CCN=C2Nc2ccccc2)c1`, which Potency is on record?
Its Potency is inconclusive: 0.631 µM [inhibitor, partial curve, poor fit].

For `Cc1ccnc(OC(C(=O)O)C(OCc2ccccc2)(c2ccccc2)c2ccc(C(F)(F)F)cc2)n1` (stereo not drawn), which Potency is on record?
The Potency was inconclusive: 35.5 µM [inhibitor, single point].

For `N#Cc1ccc(C(=O)Nc2nnc(-c3ccco3)o2)cc1`, which Potency is on record?
Its Potency is inconclusive: 11.2 µM [inhibitor, partial curve, poor fit].

Which Potency does the source give for `Cc1ccccc1NC(=S)c1ccc2ccccc2n1` here?
Its Potency is inconclusive: 3.55 µM [inhibitor, single point].

With `CCOC(=O)C1CCN(C(=O)c2ccc(N3CCOCC3)c([N+](=O)[O-])c2)CC1` as the compound, how does the Potency read?
The Potency was “inactive”.

For `CCCSc1nc2cc(C)c(C)cc2n1CC(C)O` (stereo not drawn), which Potency is on record?
The Potency was inconclusive: 22.4 µM [inhibitor, single point].

Which Potency does the source give for `COc1ccc(-c2ccc(C(=O)NCc3ccco3)c3occc23)c(C)c1` here?
Its Potency is inconclusive: 35.5 µM [inhibitor, single point].

With `CC(C)(C)S(=O)N1Cc2cc(C(=O)O)nc(-c3cccc(-c4cc5ccccc5o4)c3)c2[C@H]1CCO` (stereo partly drawn) as the compound, how does the Potency read?
Its Potency is “inactive”.

With `COc1ccc(NC(=O)c2c(NCc3cccs3)sc3c2CCCC3)c(OC)c1` as the compound, how does the Potency read?
Its Potency is inconclusive: 35.5 µM [inhibitor, single point].

For `O=C(CN1C(=O)c2cccnc2Oc2ccc(Cl)cc21)NCCC1=CCCCC1`, which Potency is on record?
The Potency was “inactive”.

For `CCOP(=O)(OCC)c1nc(-c2cccc3ccccc23)oc1NCc1ccc(OC)cc1`, which Potency is on record?
Its Potency is inconclusive: 28.2 µM [inhibitor, single point].

With `COc1ccc(CNC(=O)c2noc(C)c2[N+](=O)[O-])cc1` as the compound, how does the Potency read?
The Potency was inconclusive: 3.16 µM [inhibitor, single point].

With `Cc1ccc(C2CC(c3cccs3)=NN2C(=O)CSC2=NCCS2)cc1` (stereo not drawn) as the compound, how does the Potency read?
Its Potency is inconclusive: 11.2 µM [inhibitor, partial curve].

For `CC(=O)OCCCNc1cc(SCc2ccco2)c2nonc2c1[N+](=O)[O-]`, which Potency is on record?
Its Potency is inconclusive: 22.4 µM [inhibitor, single point].

For `Cc1ccc(S(=O)(=O)N2CCN(C(=O)C3COc4ccccc4O3)CC2)cc1C` (stereo not drawn), which Potency is on record?
Its Potency is inconclusive: 10 µM [inhibitor, partial curve, poor fit].

For `COc1ccccc1-c1noc(-c2ccc(N3CCN(C)CC3)c([N+](=O)[O-])c2)n1`, which Potency is on record?
The Potency was inconclusive: 35.5 µM [inhibitor, single point].

With `O=S(=O)(NCCC1=CCCCC1)c1cccc(S(=O)(=O)N2CCOCC2)c1` as the compound, how does the Potency read?
The Potency was “inactive”.

With `COc1ccc(N(C(=O)c2snc(C(N)=O)c2N)C(C(=O)NC2CCCC2)c2ccc(OC)c(OC)c2)cc1` (stereo not drawn) as the compound, how does the Potency read?
Its Potency is “inactive”.

For `O=C(Cn1c(=O)n(-c2cccc(Cl)c2)c(=O)n1CC(=O)N1CCCCC1)N1CCCCC1`, which Potency is on record?
Its Potency is inconclusive: 12.6 µM [inhibitor, partial curve].

With `O=C(O)Cc1sc(-c2cccnc2)nc1-c1ccc(Br)cc1` as the compound, how does the Potency read?
The Potency was “inactive”.

For `Cc1ccc(C)c(NC(=O)CN(C)C(=O)c2cccc(Oc3ccccc3)c2)c1`, which Potency is on record?
The Potency was inconclusive: 35.5 µM [inhibitor, single point].

For `CCNC(=S)N(CCc1c(C)[nH]c2ccc(Cl)cc12)Cc1ccco1`, which Potency is on record?
Its Potency is inconclusive: 35.5 µM [inhibitor, single point].

Which Potency does the source give for `Cc1ccc(CSC2=Nc3ccccc3C3=NC(CC(=O)NCc4cccs4)C(=O)N23)c(C)c1` (stereo not drawn) here?
The Potency was “inactive”.

With `Cc1ccc(N=Nc2ccc(O)c(/C=N\NC(=O)c3ccc(N)cc3)c2)cc1C` as the compound, how does the Potency read?
The Potency was “inactive”.

With `COc1ccc2c(C=Nc3c(C)n(C)n(-c4ccccc4)c3=O)c(O)n(Cc3ccco3)c(=O)c2c1` as the compound, how does the Potency read?
Its Potency is “inactive”.

With `CCOc1ccccc1NC(=O)c1nc(S(=O)(=O)Cc2ccccc2F)ncc1Cl` as the compound, how does the Potency read?
Its Potency is inconclusive: 2.82 µM [inhibitor, partial curve, poor fit].

Which Potency does the source give for `C[C@H](NC(=O)c1[nH]cnc1C(=O)Nc1cccc(Cl)c1)c1ccccc1` here?
Its Potency is inconclusive: 12.6 µM [inhibitor, single point].
